Measurements as given in the supplement of paper PMC3334620.
In all, about 33,000 sequences were measured (“E-score (-0.5 to 0.5)”: median about -0.053, highest 2% from about 0.37 on). The list shows a part of the results.

Each sequence was assayed against Hap1 (UniProt P0CE41) (assay: PBM E-score (8-mer binding enrichment) (E-score (-0.5 to 0.5)); higher = stronger / more preferred TF binding; most listed sequences are background and not binding sites). Settings: protein concentration: 200 nM; construct: GST-DNA-binding domain.
Sequence of UniProt P0CE41 (P0CE41 whole entry, the tested form may be a part): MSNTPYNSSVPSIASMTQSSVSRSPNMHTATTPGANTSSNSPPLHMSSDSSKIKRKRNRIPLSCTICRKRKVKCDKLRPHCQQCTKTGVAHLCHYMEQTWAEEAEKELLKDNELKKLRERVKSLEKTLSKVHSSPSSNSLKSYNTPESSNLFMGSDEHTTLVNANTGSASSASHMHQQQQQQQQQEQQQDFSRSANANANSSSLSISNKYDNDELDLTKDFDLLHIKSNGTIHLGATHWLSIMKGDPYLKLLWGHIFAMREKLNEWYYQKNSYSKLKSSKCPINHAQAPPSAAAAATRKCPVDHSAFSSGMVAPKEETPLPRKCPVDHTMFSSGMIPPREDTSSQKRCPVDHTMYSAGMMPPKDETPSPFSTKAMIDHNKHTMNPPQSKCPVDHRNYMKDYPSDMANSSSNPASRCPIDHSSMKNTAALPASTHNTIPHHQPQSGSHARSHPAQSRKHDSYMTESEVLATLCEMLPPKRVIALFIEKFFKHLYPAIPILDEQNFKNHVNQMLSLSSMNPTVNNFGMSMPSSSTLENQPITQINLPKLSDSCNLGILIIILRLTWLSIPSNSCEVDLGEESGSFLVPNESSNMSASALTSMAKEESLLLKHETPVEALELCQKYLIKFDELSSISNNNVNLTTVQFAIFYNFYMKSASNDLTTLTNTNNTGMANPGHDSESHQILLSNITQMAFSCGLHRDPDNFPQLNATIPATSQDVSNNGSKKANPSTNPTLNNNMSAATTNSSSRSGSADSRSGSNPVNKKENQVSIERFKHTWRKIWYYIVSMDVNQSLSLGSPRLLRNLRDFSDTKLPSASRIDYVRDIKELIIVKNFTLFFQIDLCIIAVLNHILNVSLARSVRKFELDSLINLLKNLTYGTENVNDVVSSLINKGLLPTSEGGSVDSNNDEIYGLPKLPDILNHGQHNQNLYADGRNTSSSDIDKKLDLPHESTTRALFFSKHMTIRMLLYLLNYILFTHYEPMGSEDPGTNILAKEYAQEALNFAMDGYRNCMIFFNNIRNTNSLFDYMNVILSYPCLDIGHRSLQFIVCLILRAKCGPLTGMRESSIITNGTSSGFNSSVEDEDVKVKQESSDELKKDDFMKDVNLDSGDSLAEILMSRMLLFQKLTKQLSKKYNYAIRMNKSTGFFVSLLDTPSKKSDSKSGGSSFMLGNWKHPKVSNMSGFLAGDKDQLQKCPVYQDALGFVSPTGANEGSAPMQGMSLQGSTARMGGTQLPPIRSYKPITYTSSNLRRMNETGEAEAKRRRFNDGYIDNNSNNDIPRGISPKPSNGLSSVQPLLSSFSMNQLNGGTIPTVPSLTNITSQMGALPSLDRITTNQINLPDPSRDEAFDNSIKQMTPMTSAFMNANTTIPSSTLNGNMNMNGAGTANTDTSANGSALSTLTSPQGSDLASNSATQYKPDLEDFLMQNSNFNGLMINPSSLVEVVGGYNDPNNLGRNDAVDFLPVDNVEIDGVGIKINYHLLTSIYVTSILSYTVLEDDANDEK
Experimental: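 Universal 'all 10-mer' protein binding microarrays (Agilent AMADID 015681) probed with GST-tagged S. cerevisiae TFs (full-length or DBD) made by in vitro transcription/translation (PURExpress), about 100-200 nM. Bound TF was detected with fluorescent anti-GST. Each ungapped 8-mer (which stands for itself and its reverse complement) is scored by the PBM enrichment score (E-score), a modified Wilcoxon-Mann-Whitney statistic from -0.5 to +0.5, computed with the Universal PBM Analysis Suite. Scale: above 0.35 generally sequence-specific binding.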

| Sequence | PBM E-score |
| --- | --- |
| ATGGCGTG | -0.206 |
| GAAAGCGC | 0.116 |
| GAACCTTC | -0.0929 |
| GTAAAAGA | -0.215 |
| ACCAAAGT | -0.104 |
| CGAAGCAG | 0.0324 |
| AACCAGTG | -0.205 |
| TTCCTCAA | -0.183 |
| ACAGCTGG | -0.175 |
| GAGTACTC | 0.0539 |
| GCAGTGTA | -0.155 |
| AACACTCA | -0.0112 |
| AGGAGCCA | -0.325 |
| TGGTGGAA | -0.191 |
| ACAGGCCG | 0.192 |
| ACTGACGA | -0.0969 |
| AGATACTC | -0.0989 |
| AGTCTCCG | 0.362 |
| GCTGCCAC | -0.0119 |
| AAGGACAT | -0.0738 |
| GAAAAATA | 0.0403 |
| ACCAGCTC | -0.0516 |
| CGTCAACG | 0.0515 |
| ACATCGCG | -0.0355 |
| TAAGTTAA | 0.0727 |

| Sequence | PBM E-score |
| --- | --- |
| GATTGTGC | -0.0311 |
| TCGGTAAA | 0.249 |
| CCTGCCGC | -0.124 |
| CCGCCGCG | 0.278 |
| ATCCTTTG | -0.00548 |
| ACCTTTTA | -0.198 |
| GATCGGCC | 0.331 |
| GTATGCAC | -0.112 |
| CACTTTTC | 0.0512 |
| ATGCCCGG | 0.354 |
| AAAATCCT | 0.0522 |
| CCTGGATA | -0.108 |
| GTGTTATA | -0.0285 |
| CCAAAAAG | -0.165 |
| ACCACGGG | -0.0102 |
| AATTTTAC | -0.0695 |
| ACATTAAG | -0.209 |
| CCCGCCGA | 0.323 |
| ACCGGTTA | 0.304 |
| GTTGGGTA | -0.208 |
| GGAGGCTA | 0.0314 |
| CCCAAGGC | -0.0818 |
| ATAATCGC | 0.0499 |
| CAGATGCA | -0.247 |
| AACCACGA | 0.0191 |

| Sequence | PBM E-score |
| --- | --- |
| CATAACCC | 0.0105 |
| CTTGCAAA | 0.0682 |
| GAATTGTA | -0.205 |
| AGAAACAA | 0.0172 |
| CATGGCGG | 0.106 |
| ATACAGAA | -0.0178 |
| CCGTGGCG | 0.221 |
| CCTTAAAG | -0.146 |
| AGCTGGTG | 0.0394 |
| CATTTAGG | -0.112 |
| GCTTCGGA | 0.327 |
| GATTATGA | 0.0407 |
| CAAGTTCA | 0.0306 |
| CGCGGCTC | 0.109 |
| CCGTTCGA | 0.0421 |
| CTGCAGAA | -0.114 |
| AGGGGTAT | -0.0522 |
| CTATAATA | 0.0434 |
| CAAGCATA | -0.0814 |
| GTCGCGGA | 0.16 |
| AACATAGC | 0.015 |
| CACATCCA | -0.0146 |
| GCATAGGC | -0.313 |
| ACAACACT | -0.0976 |
| CCAAATAC | -0.0681 |

| Sequence | PBM E-score |
| --- | --- |
| ACGCCGTA | 0.0761 |
| GGATGTTA | 0.179 |
| CTCGGAAA | 0.346 |
| CTTGCAGA | -0.0562 |
| CCCTCTTA | -0.13 |
| AAGGCTTG | -0.0599 |
| CAACGTAC | -0.303 |
| CGATAGCG | 0.26 |
| CCAGCGGA | 0.176 |
| ACTAAATA | -0.0994 |
| ACGCATGC | 0.00073 |
| TCCTTGAA | -0.0959 |
| AGGGTTCG | -0.0597 |
| TATTGACA | -0.082 |
| ACGGATAT | 0.43 |
| CCAGGTCC | 0.174 |
| CTCTCACC | -0.101 |
| ACAGCCCT | -0.107 |
| CGACATCG | 0.229 |
| GTTATCTA | 0.0137 |
| AACACCGT | 0.245 |
| GACCAGCA | -0.0864 |
| AATTAGCT | -0.00426 |
| GCCCCCCC | -0.145 |
| CTGCGGAA | 0.112 |

| Sequence | PBM E-score |
| --- | --- |
| AGCGCGAA | 0.0606 |
| GATATTCA | 0.0076 |
| CGGCTCGA | 0.245 |
| ATGGATGG | -0.0356 |
| ATTACCGG | 0.434 |
| TCTAGTAA | 0.0175 |
| CATCCTGG | -0.102 |
| ACAGCCGT | 0.0994 |
| CGTAGGAA | -0.182 |
| ATTAGCAG | 0.0304 |
| AGTTTCGA | -0.0388 |
| CCATTGGC | -0.0939 |
| AGACCTGG | -0.121 |
| TCATTAGA | -0.126 |
| ATTACTAC | -0.224 |
| TCGCGCCA | 0.135 |
| ACCGAACC | 0.251 |
| ATGCTAGA | -0.24 |
| GGCGTATA | -0.0502 |
| AAGTTATA | -0.0591 |
| ACGGAGAC | 0.285 |
| GCTAGCGA | -0.0832 |
| ACAAAGCG | -0.0571 |
| GATTAACA | -0.101 |
| ATAAGAAA | 0.0132 |

| Sequence | PBM E-score |
| --- | --- |
| ACTAACCG | 0.12 |
| ACCCGAGT | 0.229 |
| AACTTTCC | 0.1 |
| TACCTACA | -0.246 |
| CTAACTCC | 0.403 |
| TTATCGAA | 0.255 |
| ATCGTAGA | -0.213 |
| AACGAAAA | 0.00098 |
| AACGAGAA | -0.15 |
| CTTACGTA | -0.203 |
| TAGTCGGA | 0.309 |
| ATGCTTTC | -0.157 |
| GGTATTTA | 0.169 |
| AAAAGAAG | -0.104 |
| ACGGACCG | 0.328 |
| GAACTTGA | -0.0295 |
| AGGTGGTG | -0.0593 |
| GATGATCC | 0.174 |
| CTATAGAA | -0.135 |
| CTAACCGC | -0.0116 |
| CCGGAGAG | 0.354 |
| ACTCGGGC | 0.216 |
| ATTTCCCC | 0.181 |
| GATGCACA | -0.209 |
| GTTGTCGA | -0.169 |

| Sequence | PBM E-score |
| --- | --- |
| ATGATGTA | -0.12 |
| AGCACATA | 0.0123 |
| CTAACGTC | 0.00466 |
| CACGAACG | -0.00661 |
| CGCTGGAG | 0.00312 |
| ATCTACCA | -0.136 |
| ACCGCCTG | -0.105 |
| GAGTGACA | -0.112 |
| GAGGACTA | -0.108 |
| ATGCCTAA | -0.21 |
| GCGGGAAC | 0.212 |
| GATGGTGA | -0.0555 |
| CCCACCAC | -0.0164 |
| AACCTCCA | -0.163 |
| GACTGCGA | -0.126 |
| GAACGAGC | -0.018 |
| AGGGTCGC | 0.0733 |
| AATAAGCA | -0.204 |
| CCGGGCTC | 0.243 |
| ACGCCAAG | -0.289 |
| AACTGGAC | -0.0332 |
| ATACGCAA | -0.142 |
